According to the RNAGym collection of RNA variant scans (doi:10.7554/elife.90254):
The source gives no read counts; variants with many changes may rest on few reads.

B1: LINE1-mini (parent)
chain: GGCAGAGCUCAACACAGCGUGGCAAAGUGGCUGUGGCUAGACUGCC

Variants of: B1
Assay: self-cleavage, relative activity (ratio to wild type); higher = more cleavage; in vitro, sequencing; the parent is a self-cleaving ribozyme
GGCGGCGCUCAACCCAGCGUGGCAAAGUGGCUGUGGCUAGACUGCC [A4G A6C A14C] gave a self-cleavage of 0.15. Variant GGCAGAGCGCAACACAGCGUGGCGCAGUGGCUGUGGCUAGAUUGCC [U9G A24G A25C C42U] has a self-cleavage of 0.02. For GGCAGAGCUCAACACAGCGUGGCUCAGUGGCUGUGGCUAGGCUGCC [A24U A25C A41G], the self-cleavage was 0.16. Work on GGCAGAGCUAAAGACAGCGUAGCAAAGUGGCUGUUGCUCGACUGCC [C10A C13G G21A G35U A39C] yielded a self-cleavage of 0.03. With GGCAGAGCUCAACACAGAGUGGCAAAGUGGCUCAGGCUAGACUGCC [C18A G33C U34A] the self-cleavage was 0.02. GGCCGAGCUCAGAACAGCGUGGCACAGUGGCUCUGGUUAGACUGCC [A4C A12G C13A A25C G33C C37U] showed a self-cleavage of 0.02. Variant GGCAGAGCUUUGCACAGGGUGGCAAAGUGGCUGUAGCUAGACUGCC [C10U A11U A12G C18G G35A] has a self-cleavage of 0.01. In the case of GGCAAAGCUCAACACAGCGUGGCAAAGUGCCUGGGGCUGGACUGCC [G5A G30C U34G A39G], the self-cleavage is reported as 0.12. GGCAGAGCUCAACAGAGCGUGAUAAAGUCACUGUGGCUAGACUGCC [C15G G22A C23U G29C G30A] gave a self-cleavage of 0.02. GGCAGAGCUCAAGGCAGCAUGACAAGGUGGCUGUGGCUGGACUGCC [C13G A14G G19A G22A A26G A39G] gave a self-cleavage of 0.07. Variant GGCAGAGCUCAACACAGCAUGGCAAAGCGGCUGUGGCUAGACUGCA [G19A U28C C46A] has a self-cleavage of 0.39. Variant GGCAGCGCUCAACACAGUGUGGCAAAGUGGUUGGGGCUAGACUGCC [A6C C18U C31U U34G] has a self-cleavage of 0.02. With GGCAGAGCUCAGCAUAGCGUGGCAAAGUGGAUGUGGUUACACUGCC [A12G C15U C31A C37U G40C] the self-cleavage was 0.03. For GGCAGGGCUCAACACUGCGUGGCAAAAUGGCUGGGGCUAGACUGCC [A6G A16U G27A U34G], the self-cleavage was 0.06. For GGUAGAGCUCAACACAGCGUGGCAUAGUGGCUGUGGCUAGACUUCC [C3U A25U G44U], the self-cleavage was 0.1. Variant GGCAGAUGUCAACACAGCCUGGCUAAGUGGCUUUGGCUAGACUGCC [G7U C8G G19C A24U G33U] has a self-cleavage of 0.04. Variant GGCAGAGCUCAACACCUCGUGGCAAAGUGGCAGAGCCUAGUCUGCC [A16C G17U U32A U34A G36C A41U] has a self-cleavage of 0.01. With GGCAGAGCUCAACACAGCGUGGCACAAUGACUGUGGCUAGACUGCC [A25C G27A G30A] the self-cleavage was 0.69. With GGCAGAGCUCAACACAGCGUGGUACAGUGGCAGUGGUUAGACUGCC [C23U A25C U32A C37U] the self-cleavage was 0.02. GGCAGAGCUCAACACAGCGUGGCAAAGUUGAUGUGGCUAAAAUGCC [G29U C31A G40A C42A] showed a self-cleavage of 0. With GGCAGAGCUCAACACAGCGUGGCAAAGUGGCUGUGGCUAGUCUCCA [A41U G44C C46A] the self-cleavage was 0.02. Variant GGCAGAGCUCCACACAGCGUGGCAAAGUGGCUGUGGCUCGACUGUU [A11C A39C C45U C46U] has a self-cleavage of 0.01. For GGCAGAGCUCAACACAGAGUGGCAAAGUGGCUGUGCCUAGACGGCC [C18A G36C U43G], the self-cleavage was 0.01. GGCAGAGCUCAACAAAGCGUGGCAAAGUGGCUCUGGCUAGUCUGCG [C15A G33C A41U C46G] gave a self-cleavage of 0.04. In the case of GGCAGAGCUCACCAAAGCGUUGCAAAGUGGCUGUGGCUAGACGGCA [A12C C15A G21U U43G C46A], the self-cleavage is reported as 0. Work on GGAACAGCGCAACACAGCGUGGCAAAGUGGCUGUGGCUAGACUGCC [C3A G5C U9G] yielded a self-cleavage of 0.01. For GGCAGAGCUCAAUACAGCGUGACAAAGUGUCUGUGGCAAGACUGCC [C13U G22A G30U U38A], the self-cleavage was 0.06. For GGCAGAGCUCAACGCAGCGUGGAAAAGUGGCUGUGGCUAGACUGGC [A14G C23A C45G], the self-cleavage was 0.33. Work on GGCGGAGCUCAACGCAGCAUGGCAAAGUGGCUGUCGCUAAACUGCG [A4G A14G G19A G35C G40A C46G] yielded a self-cleavage of 0.02. Variant GGCAGAGCUUAAAACGGCGUUGCAAAGUGGCUGUGGCUAGACUGCC [C10U C13A A16G G21U] has a self-cleavage of 0.02. Variant GGCAGAGCUCAACACACCGUGGCAAAUUGGCUUUGGCUACACUGCU [G17C G27U G33U G40C C46U] has a self-cleavage of 0.01. Work on GUCAGAACUCAACACAGCAUGUCAAAGUGCCUGUGGCUAGACUGCC [G2U G7A G19A G22U G30C] yielded a self-cleavage of 0.05. Variant GGCAGAGCUCAACACAGCGUGGCAAAGUGGCGGUGGGUAGACUUCC [U32G C37G G44U] has a self-cleavage of 0.04. Work on GGCAGAGGUCAACACCGCGUGGCAAAGUGGCUGUGGAUAGACUGCC [C8G A16C C37A] yielded a self-cleavage of 0.01. With GGCGGAGCUGAACACAGCGUGGCAAAGUGGCUGUGGCCAAACUGCC [A4G C10G U38C G40A] the self-cleavage was 0.01. With GGCAAAGUUCAACACAGUGUGCCAAAGUGGCUGUGGCUAGACUGCC [G5A C8U C18U G22C] the self-cleavage was 1.68. Variant GGUAGAGCUCAUCACAGCGUUGCAAAGUGGCUGUGGCUAGACUGCC [C3U A12U G21U] has a self-cleavage of 0.01. With GGCAGAGCUCAACACAGCGUGGAAAAGUGGCUGUGGCUAGAGCGCC [C23A C42G U43C] the self-cleavage was 0.03. GGCAGACCUCAACACAGAGUGCCAGAGUGGCUGUGGCUAGACUGCC [G7C C18A G22C A25G] showed a self-cleavage of 0.05. Variant CGCAGAGCUCAACACAGCGUGGCUAAGUGGCUGUGGGUAGACUGCG [G1C A24U C37G C46G] has a self-cleavage of 0.01. For GGCAGAGCUCAACACAGCGUAGUAAAGUGGUUGUGGGUAGACUCCC [G21A C23U C31U C37G G44C], the self-cleavage was 0.05. Work on GGCAGAGGUCAAUACAGCGUGGGAAAGUGGCUAUGGCUAGACUGCC [C8G C13U C23G G33A] yielded a self-cleavage of 0.02. GGCAGAGCUCCACAGAGCGUGGCAAAGUGGCUGUGGCCAGACUGCC [A11C C15G U38C] showed a self-cleavage of 0.02. With GGCAGAGAUCAACUCCGCGUGGCAAAGUGGCUGUGGCUAGAUUGCC [C8A A14U A16C C42U] the self-cleavage was 0.23. In the case of GGCAUAGCUCAACGCAGCGUGACAAAGUGGCUGUGGCUAGACUGCC [G5U A14G G22A], the self-cleavage is reported as 0.43. GGAAGAGCUCAACACAUCGUGGUAAAGUGGCUGUGGGUAGACUGCC [C3A G17U C23U C37G] gave a self-cleavage of 0.23. With GUCAGAGCUCACCACAACGUGGCAAAGUGGCUGUGGCUAGACUGCC [G2U A12C G17A] the self-cleavage was 0.02. Variant GGAACAGCUCAACACAGCGUGGCAAAAUGGCUGUGGCUAGACUGCC [C3A G5C G27A] has a self-cleavage of 0.24. Work on GGCAUAGCUCAACACAGCAUGGAAAAGUGGCUGUAGCUAGACUGCC [G5U G19A C23A G35A] yielded a self-cleavage of 0.05. Work on GGCAGAGCUCAACACAGCGUGGCAACGUGGCUUUGGCUUGACUGCC [A26C G33U A39U] yielded a self-cleavage of 0.04. In the case of GAAAGAGCGCAACACAGCGUGGCAAAGCGGCCGUCGCUAGACUGCC [G2A C3A U9G U28C U32C G35C], the self-cleavage is reported as 0.36. Work on GGCAGAGCUCAACAAAUCGUGGCAAAGUGGCUGUGGCUAGACCGCC [C15A G17U U43C] yielded a self-cleavage of 0.01. For GGCAGAGCUCAACACAGCCUGGCAAUGUGGCUGUGGCUGGACUGCC [G19C A26U A39G], the self-cleavage was 0.03. In the case of GGUAGAGCUCAACACAGCGUGGCAAAAUGGCUGUGGCUAGACCGCC [C3U G27A U43C], the self-cleavage is reported as 0.07. Work on GGCAGAGCUCCACACAGCGUGGCUAAGUUGCUGUGGGUAGACUGCC [A11C A24U G29U C37G] yielded a self-cleavage of 0.02. For GGCAGAGCUCAACACAGCGUGCCAAAGUGGCUGGGGCUAGACUGCA [G22C U34G C46A], the self-cleavage was 0.01.
